# In the supplement of paper PMC8183993:
# “And” between values parts separate entries of the source, which are not always exact repeats. Equal values may be shown once. Where a name gives a salt, the structure may show the parent alone. ± gives the standard deviation of the averaged measurements. The full ranking holds about 3,200 compounds; the median of “nuclei count (viability) relative to DMSO” is about 99, and the lowest 2% start at about 16. This is one part of the list.
# Test system: U2OS
# Assay: nuclei count (viability) relative to DMSO (% of DMSO); higher = more viable cells
# Details: 10 µM; 24 h
# Procedure: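 Primary image-based screen in U2OS cells: compounds at 10 uM for 24 h, then a 1 h o-propargyl-puromycin (OPP) pulse, click labelling, and high-throughput microscopy. Mean cytoplasmic OPP intensity and nuclei count were normalised to DMSO wells within each plate (DMSO = 100) and averaged over triplicate plates.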
row,Compound,nuclei count
1,C[C@H](N)[C@H](O)c1cccc(O)c1 [Metaraminol bitartrate],86.1
2,CCOC(=O)n1ccn(C)c1=S [Carbimazole],108
3,CC(C)[C@H]1c2ccc(F)cc2CC[C@@]1(CCN(C)CCCc1nc2ccccc2[nH]1)OC(=O)C1CC1 [NNC 55-0396 dihydrochloride],10.5
4,COc1cc(O)c2c(c1)C(=O)c1cc(C)cc(O)c1C2=O [Rheochrysidin (Physcione)],108
5,COc1cc(N2CCC(N)CC2)ccc1Nc1ncc(Cl)c(-c2c[nH]c3ccccc23)n1,7.03
6,Nc1[nH]nc2nnc(-c3c(-c4ccccc4)nn4ccccc34)cc12,76.6
7,"O=C1CN(/N=C/c2ccc(-c3ccc([N+](=O)[O-])cc3)o2)C(=O)N1 [Dantrolene, sodium salt]",96.8
8,O=C1CN(/N=C/c2ccc(-c3ccc([N+](=O)[O-])cc3)o2)C(=O)N1 [Dantrolene],107
9,O=C1CN(/N=C/c2ccc(-c3ccc([N+](=O)[O-])cc3)o2)C(=O)N1 [Dantrolene sodium salt],106
10,O=C1Nc2ccc([N+](=O)[O-])cc2C1=O [5-Nitroisatin],99
11,Cc1cc(NS(=O)(=O)c2ccc(N)cc2)no1 [Sulfamethoxazole],103
12,CN[C@@H]1[C@@H](O)[C@@H](O[C@@H]2[C@@H](O)[C@H](O[C@H]3OC(CN)=CC[C@H]3N)[C@@H](N)C[C@H]2N)OC[C@]1(C)O [Sisomicin sulfate],101
13,CC1(C)S[C@@H]2[C@H](NC(=O)[C@H](C(=O)O)c3ccsc3)C(=O)N2[C@H]1C(=O)O [Ticarcillin sodium],108
14,CC(C)n1nnc2cc(C(=O)O)ccc21,104
15,COC(=O)c1c(C)[nH]c(C)c1C(=O)c1ccccc1Cc1ccccc1,95.1 and 97.3
16,COc1ccc(/C=C\c2cc(OC)c(OC)c(OC)c2)cc1O [Combretastatin A4],19.9
17,CCCC1O[C@@H]2C[C@H]3[C@@H]4CCC5=CC(=O)C=C[C@]5(C)[C@H]4[C@@H](O)C[C@]3(C)[C@]2(C(=O)CO)O1 (stereo not given in full) [Budesonide],105 ± 3.4
18,CCOC(=O)[C@H](CCc1ccccc1)N[C@H]1CCCN2CCC[C@@H](C(=O)O)N2C1=O [Cilazapril monohydrate (Inhibace)],96.7
19,COc1cc(C(C)=O)ccc1OCCCN1CCC(c2noc3cc(F)ccc23)CC1 [Iloperidone (Fanapt)],104
20,CC1=C(/C=C/C(C)=C/C=C/C(C)=C/C=C/C=C(C)/C=C/C=C(C)/C=C/C2=C(C)C(=O)CCC2(C)C)C(C)(C)CCC1=O [Canthaxanthin],105
21,Cc1cc(C)c2c(c1)[C@@H](N(Cc1cc(C(F)(F)F)cc(C(F)(F)F)c1)c1nnn(C)n1)CCCN2C[C@H]1CC[C@H](C(=O)O)CC1,102
22,CNC(=O)c1ccccc1Nc1nc(Nc2ccc(N3CCOCC3)cc2OC)ncc1Cl,38.9 ± 1.6
23,CC1=C(C(=O)Nc2cc3cn[nH]c3cc2F)C(c2ccc(C(F)(F)F)cc2)CC(=O)N1 (stereo not given),87.7 ± 1.7
24,CCOC(=O)c1ncn2c1CN(C)C(=O)c1cc(F)ccc1-2 [Flumazenil],95.1
25,CC[C@H](NC(=O)c1c(C)c(-c2ccccc2)nc2ccccc12)c1ccccc1,105

row,Compound,nuclei count
1,COc1cc(/C=C/c2ccc(O)cc2)cc(OC)c1 [Pterostilbene],80.5
2,NCC(O)(CS(=O)(=O)O)c1ccc(Cl)cc1 (stereo not given) [2-Hydroxysaclofen],102
3,CC(C1=C(CCN(C)C)Cc2ccccc21)c1ccccn1 (stereo in doubt) [(S)-(+)-Dimethindene maleate],101
4,O=C(O)Cc1ccc(OCCNC[C@H](O)c2ccccc2)cc1 [ZD 2079 hydrochloride],115
5,CC(C(=O)O)c1cccc(C(=O)c2ccccc2)c1 (stereo not given) [Ketoprofen],95.1
6,COC(=O)N[C@H](C(=O)N1CCC[C@H]1c1ncc(-c2ccc(-c3ccc(-c4cnc([C@@H]5CCCN5C(=O)[C@@H](NC(=O)OC)C(C)C)[nH]4)cc3)cc2)[nH]1)C(C)C,99.3
7,C[C@H](NC[C@H](O)CP(=O)(O)CC1CCCCC1)c1ccc(Cl)c(Cl)c1,108
8,O=S(=O)(c1ccccc1)N(CC(F)(F)F)c1ccc(C(O)(C(F)(F)F)C(F)(F)F)cc1,107
9,C#C[C@]1(O)CC[C@H]2[C@@H]3CCc4cc(O)ccc4[C@H]3CC[C@@]21C [Ethinylestradiol],80.4
10,C#C[C@]1(O)CC[C@H]2[C@@H]3CCc4cc(O)ccc4[C@H]3CC[C@@]21C [Ethinyl Estradiol],89.2
11,CCCCN(CCCC)CCC(O)c1cc2c(Cl)cc(Cl)cc2c2cc(C(F)(F)F)ccc12 (stereo not given) [Halofantrine hydrochloride],110
12,"COc1cc(F)c(F)c(Nc2ccc(I)cc2F)c1NS(=O)(=O)C1(C[C@H](O)CO)CC1 [Refametinib (RDEA119, Bay 86-9766)]",90.6
13,CCOc1cc(CC(=O)N[C@@H](CC(C)C)c2ccccc2N2CCCCC2)ccc1C(=O)O [Repaglinide],105 ± 2.7
14,O=C(O)C(Cc1c[nH]c2ccccc12)N1C(=O)c2ccccc2C1=O (stereo not given),96.7
15,CCOC(=O)C1=C(C)NC(C)=C(C(=O)OCC)C1c1ccccc1/C=C/C(=O)OC(C)(C)C [Lacidipine],78.9
16,COc1ccc(C(=O)CC(=O)c2ccc(C(C)(C)C)cc2)cc1 [Avobenzone (Parsol 1789)],93.4
17,Cc1ccccc1C(=O)c1ccc(Nc2ccc(Br)cc2N)cc1Cl,98.2
18,CC(=O)OCC(=O)[C@@]1(O)[C@H](C)C[C@H]2[C@@H]3CCC4=CC(=O)C=C[C@]4(C)[C@@]3(F)[C@@H](O)C[C@@]21C [Dexamethasone acetate],99.8 ± 6.6
19,COc1ncnc(NS(=O)(=O)c2ccc(N)cc2)c1OC [Sulfadoxine],107
20,c1ccc(C(O[C@@H]2CCCN(CCc3ccc4c(c3)OCO4)C2)c2ccccc2)cc1 [Zamifenacin fumarate],100
21,COc1ccc(C(=O)c2ccccc2)c(O)c1 [Oxybenzone],104
22,COc1c(N2C[C@@H]3CCCN[C@@H]3C2)c(F)cc2c(=O)c(C(=O)O)cn(C3CC3)c12 [Moxifloxacin],109
23,CC1(C)CCC[C@]2(C)[C@H]3CC(=O)O[C@]3(C)CC[C@@H]12 [Sclareolide (Norambreinolide)],94.4
24,Oc1ccc(-c2c(-c3ccccc3)nn3c(C(F)(F)F)cc(C(F)(F)F)nc23)cc1,100
25,CCCCCN(CCCCC)C(=O)C(CCC(=O)O)NC(=O)c1ccc(Cl)c(Cl)c1 (stereo not given) [Lorglumide sodium salt],110

row,Compound,nuclei count
1,Cc1cc(N2CCOCC2)cc2[nH]c(-c3c(NC[C@@H](O)c4cccc(Cl)c4)cc[nH]c3=O)nc12,48
2,CC(C)(C)NC(=O)[C@@H]1C[C@@H]2CCCC[C@@H]2CN1C[C@@H](O)[C@H](Cc1ccccc1)NC(=O)[C@H](CC(N)=O)NC(=O)c1ccc2ccccc2n1 [Saquinavir mesylate],89.7
3,COc1ccc2[nH]c([S@@+]([O-])Cc3ncc(C)c(OC)c3C)nc2c1 [Esomeprazole magnesium (Nexium)],105
4,CS(=O)(=O)N1CCN(Cc2cc3nc(-c4cccc5[nH]ncc45)nc(N4CCOCC4)c3s2)CC1 [Pictilisib (GDC-0941)],79.6
5,CC(C)NCC(O)c1ccc(O)c(O)c1 (stereo not given) [Isoproterenol hydrochloride],97.7
6,Nc1nc2c(ncn2COCCO)c(=O)[nH]1 [Acyclovir],107 ± 15
7,O=C(Nc1ccccc1)C12CC1C(=NO)c1ccccc1O2 (stereo not given),99.8
8,N#CCNC(=O)c1ccc(-c2ccnc(Nc3ccc(N4CCOCC4)cc3)n2)cc1 [Momelotinib (CYT387)],43.1
9,COC(=O)C1=C(C)NC(C)=C([N+](=O)[O-])[C@H]1c1ccccc1C(F)(F)F,99.5
10,OCc1c[nH]c2ccccc12 [Indole-3-carbinol],101
11,Cc1c(NC(=O)c2cccnc2)c(=O)n(-c2ccccc2)n1C [Nifenazone],107
12,O=C(/C=C/c1ccc(O)cc1)c1ccc(O)cc1O [Isoliquiritigenin],86.5
13,CS(=O)(=O)OCCCCOS(C)(=O)=O [Busulfan],96.3
14,COc1ccccc1N1CCN(CCCCNC(=O)c2ccc(-c3ccc(C(C)=O)cc3)cc2)CC1,104
15,CCCCCCCC/C=C\CCCCCCCC(N)=O [Oleamide],104
16,COC1(C2=NCCN2)COc2ccccc2O1 (stereo not given),99.7
17,OC[C@H]1O[C@@H](n2cnc3c(N[C@H]4CCC[C@@H]4O)ncnc32)[C@H](O)[C@@H]1O,113
18,Cc1ncc(-c2ccnc(Nc3ccc(S(C)(=O)=O)cc3)n2)n1C(C)C,45.7
19,CC(C)NC[C@@H](O)COc1ccc(CC(N)=O)cc1 [(R)-(+)-Atenolol],105
20,NS(=O)(=O)c1cc2c(cc1C(F)(F)F)NCNS2(=O)=O [Hydroflumethiazide],91.8
21,NC(=O)CCCCn1ccc(NC(N)=NCC(F)(F)F)n1,93.7
22,CN(C)CCCN=c1c2ccccc2n(C)c2[nH]c(=O)n(C)c(=O)c12,68.8
23,C[C@@H](O[C@H]1OCCN(Cc2nn(P(=O)(O)O)c(=O)[nH]2)[C@H]1c1ccc(F)cc1)c1cc(C(F)(F)F)cc(C(F)(F)F)c1 [Fosaprepitant dimeglumine],90.8
24,CCC(C)(Oc1ccc(C2(c3ccc(OC(C)(CC)C(=O)O)cc3)CCCCC2)cc1)C(=O)O (stereo not given) [Clinofibrate],104
25,COc1cc2nccc(Oc3ccc(NC(=O)NC4CC4)c(Cl)c3)c2cc1C(N)=O [E7080 (Lenvatinib)],97.52 ± 0.17
